# The other results are listed elsewhere or left out. Most values come without repeats; read them as rough.
# Legend:
# Assay in all cases: cell count relative to DMSO control; melanoma cells; higher = more viable cells
# Conditions in all cases: library dose: low library concentration; 72 h
# [1] = system: COLO792
# [2] = system: COLO800
# [3] = system: COLO829
# [4] = system: G361
# [5] = system: IPC-298
# [6] = system: IST-MEL1
# [7] = system: LB2518-MEL
# [8] = system: LOXIMVI
# [9] = system: MEL-HO
# 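Further: cell number obtained by counting DAPI-stained nuclei in high-throughput microscope images with image analysis software, screen run in 1,536-well plates.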
smiles,measurement,setting,value
"Cn1nnc2c(C(N)=O)ncn2c1=O [temozolomide] + O=C(Nc1cccc(Cl)c1)Nc1ncc(CCNc2ncnc3ccsc23)s1 [SNS314] (first compound 2 µM, partner dose 0.0008 µM)",cell count,[1],89.2%
same,cell count,[2],121%
same,cell count,[3],75.2%
same,cell count,[4],95.3%
same,cell count,[5],92.5%
same,cell count,[6],96.4%
same,cell count,[7],93.9%
same,cell count,[8],56.2%
same,cell count,[9],100%
"O=C(Nc1cc(C(F)(F)F)cc(C(F)(F)F)c1)c1cc(Cl)ccc1O + Oc1cc(-c2nc(-c3ccccc3)[nH]c2-c2ccncc2)ccc1Cl [L779450] (first compound 0.016 µM, partner dose 0.2 µM)",cell count,[1],115%
same,cell count,[2],134%
same,cell count,[3],104%
same,cell count,[4],91.5%
same,cell count,[5],86.8%
same,cell count,[6],100%
same,cell count,[7],85.5%
same,cell count,[8],84.4%
same,cell count,[9],96.7%
"O=C(Nc1cc(C(F)(F)F)cc(C(F)(F)F)c1)c1cc(Cl)ccc1O + O=C(O)C(=O)Nc1sc2c(c1C(=O)O)CCNC2 [TCS401] (first compound 0.016 µM, partner dose 1.66667 µM)",cell count,[1],103%
same,cell count,[2],113%
same,cell count,[3],92.7%
same,cell count,[4],98%
same,cell count,[5],98.9%
same,cell count,[6],96.7%
same,cell count,[7],95.6%
same,cell count,[8],156%
same,cell count,[9],99.4%
"Cn1nnc2c(C(N)=O)ncn2c1=O [temozolomide] + CO[C@@H]1[C@H](N(C)C(=O)c2ccccc2)C[C@H]2O[C@]1(C)n1c3ccccc3c3c4c(c5c6ccccc6n2c5c31)C(=O)NC4 [Midostaurin] (first compound 2 µM, partner dose 0.08 µM)",cell count,[1],101%
same,cell count,[2],109%
same,cell count,[3],94.4%
same,cell count,[4],88.3%
same,cell count,[5],95.5%
same,cell count,[6],93.4%
same,cell count,[7],96.8%
same,cell count,[8],67.4%
same,cell count,[9],99.9%
"Cc1cc(N2CCOCC2)cc2[nH]c(-c3c(NC[C@@H](O)c4cccc(Cl)c4)cc[nH]c3=O)nc12 + C[C@@H]1CCN(C(=O)CC#N)C[C@@H]1N(C)c1ncnc2[nH]ccc12 [CP690550] (first compound 0.2 µM, partner dose 1 µM)",cell count,[1],95.9%
same,cell count,[2],51.3%
same,cell count,[3],85.1%
same,cell count,[4],79.1%
same,cell count,[5],99.5%
same,cell count,[6],91.3%
same,cell count,[7],77.6%
same,cell count,[8],86.3%
same,cell count,[9],102%
"O=C(O)[C@@H]1[O][Sb](=[O])([O][Sb]2(=[O])[O][C@H]([C@H](O)CO)[C@H](O)[C@H](C(=O)O)[O]2)[O][C@H]([C@H](O)CO)[C@@H]1O (some centres not stated) [stibogluconate] + CC(C)(C)c1cnc(CSc2cnc(NC(=O)C3CCNCC3)s2)o1 [SNS-032] (first compound 2 µM, partner dose 0.01 µM)",cell count,[1],92.5%
same,cell count,[2],69.3%
same,cell count,[3],109%
same,cell count,[4],110%
same,cell count,[5],110%
same,cell count,[6],97.6%
same,cell count,[7],111%
same,cell count,[8],85.8%
same,cell count,[9],97.2%
"O=C(Nc1cc(C(F)(F)F)cc(C(F)(F)F)c1)c1cc(Cl)ccc1O + CN(C)S(=O)(=O)c1ccc2c(c1)/C(=C/c1cc3c([nH]1)CCCC3)C(=O)N2 [SU6656] (first compound 0.016 µM, partner dose 0.4 µM)",cell count,[1],103%
same,cell count,[2],73.4%
same,cell count,[3],80%
same,cell count,[4],89.2%
same,cell count,[5],99.5%
same,cell count,[6],91.4%
same,cell count,[7],83%
same,cell count,[8],214%
same,cell count,[9],105%
"O=C(Nc1cc(C(F)(F)F)cc(C(F)(F)F)c1)c1cc(Cl)ccc1O + NCC(=O)Nc1ccc(-n2nc(C(F)(F)F)cc2-c2ccc3c(ccc4ccccc43)c2)cc1 [OSU03012] (first compound 0.016 µM, partner dose 1 µM)",cell count,[1],88.5%
same,cell count,[2],88.6%
same,cell count,[3],83.2%
same,cell count,[4],95.4%
same,cell count,[5],78.2%
same,cell count,[6],85.2%
same,cell count,[7],87.2%
same,cell count,[8],54.7%
same,cell count,[9],107%
"O=C(O)c1ccc2c(c1)nc(Nc1cccc(Cl)c1)c1ccncc12 + COc1cc(Nc2ncc(F)c(Nc3ccc4c(n3)NC(=O)C(C)(C)O4)n2)cc(OC)c1OC [Tamatinib] (first compound 0.4 µM, partner dose 0.4 µM)",cell count,[1],56.4%
same,cell count,[2],92.1%
same,cell count,[3],90.8%
same,cell count,[4],78.2%
same,cell count,[5],79.2%
same,cell count,[6],99.5%
same,cell count,[7],82.5%
same,cell count,[8],76.3%
same,cell count,[9],78.6%
"Cc1cc(N2CCOCC2)cc2[nH]c(-c3c(NC[C@@H](O)c4cccc(Cl)c4)cc[nH]c3=O)nc12 + NCC(=O)Nc1ccc(-n2nc(C(F)(F)F)cc2-c2ccc3c(ccc4ccccc43)c2)cc1 [OSU03012] (first compound 0.2 µM, partner dose 1 µM)",cell count,[1],68.2%
same,cell count,[2],50.9%
same,cell count,[3],77.4%
same,cell count,[4],88.5%
same,cell count,[5],83.4%
same,cell count,[6],85.8%
same,cell count,[7],89.2%
same,cell count,[8],98.5%
same,cell count,[9],95.9%
"O=C(O)[C@@H]1[O][Sb](=[O])([O][Sb]2(=[O])[O][C@H]([C@H](O)CO)[C@H](O)[C@H](C(=O)O)[O]2)[O][C@H]([C@H](O)CO)[C@@H]1O (some centres not stated) [stibogluconate] + c1cc(-c2cnn3cc(-c4ccc(OCCN5CCCCC5)cc4)cnc23)ccn1 [Dorsomorphin] (first compound 2 µM, partner dose 0.4 µM)",cell count,[1],106%
same,cell count,[2],118%
same,cell count,[3],103%
same,cell count,[4],87.3%
same,cell count,[5],98.2%
same,cell count,[6],106%
same,cell count,[7],111%
same,cell count,[8],120%
same,cell count,[9],102%
"O=C(O)[C@@H]1[O][Sb](=[O])([O][Sb]2(=[O])[O][C@H]([C@H](O)CO)[C@H](O)[C@H](C(=O)O)[O]2)[O][C@H]([C@H](O)CO)[C@@H]1O (some centres not stated) [stibogluconate] + O=C(Nc1ccccc1)c1cc([N+](=O)[O-])ccc1Cl [GW9662] (first compound 2 µM, partner dose 2 µM)",cell count,[1],109%
same,cell count,[2],107%
same,cell count,[3],91.6%
same,cell count,[4],103%
same,cell count,[5],109%
same,cell count,[6],99.3%
same,cell count,[7],102%
same,cell count,[8],98.2%
same,cell count,[9],91.4%
"O=C(Nc1cc(C(F)(F)F)cc(C(F)(F)F)c1)c1cc(Cl)ccc1O + COc1ccc2c(c1)CCC1C2CCC2(C)C(NCCCCCCN3C(=O)C=CC3=O)CCC12 [U73122] (first compound 0.016 µM, partner dose 0.4 µM)",cell count,[1],106%
same,cell count,[2],134%
same,cell count,[3],43.9%
same,cell count,[4],97.7%
same,cell count,[5],102%
same,cell count,[6],91.2%
same,cell count,[8],111%
same,cell count,[9],94.1%
"O=C(O)c1ccc2c(c1)nc(Nc1cccc(Cl)c1)c1ccncc12 + COc1ccc2c(c1)CCC1C2CCC2(C)C(NCCCCCCN3C(=O)C=CC3=O)CCC12 [U73122] (first compound 0.4 µM, partner dose 0.4 µM)",cell count,[1],98.8%
same,cell count,[2],80.4%
same,cell count,[3],87.4%
same,cell count,[4],83.8%
same,cell count,[5],102%
same,cell count,[6],111%
same,cell count,[7],120%
same,cell count,[8],41.9%
same,cell count,[9],95.2%
"O=C(O)c1ccc2c(c1)nc(Nc1cccc(Cl)c1)c1ccncc12 + Cn1cc(/C=C2\C(=O)Nc3cccnc32)c2ccccc21 [GW441756] (first compound 0.4 µM, partner dose 0.4 µM)",cell count,[1],104%
same,cell count,[2],101%
same,cell count,[3],105%
same,cell count,[4],100%
same,cell count,[5],108%
same,cell count,[6],98.3%
same,cell count,[8],120%
same,cell count,[9],98.1%
"O=C(O)[C@@H]1[O][Sb](=[O])([O][Sb]2(=[O])[O][C@H]([C@H](O)CO)[C@H](O)[C@H](C(=O)O)[O]2)[O][C@H]([C@H](O)CO)[C@@H]1O (some centres not stated) [stibogluconate] + CO[C@@H]1[C@H](N(C)C(=O)c2ccccc2)C[C@H]2O[C@]1(C)n1c3ccccc3c3c4c(c5c6ccccc6n2c5c31)C(=O)NC4 [Midostaurin] (first compound 2 µM, partner dose 0.08 µM)",cell count,[1],86.9%
same,cell count,[2],114%
same,cell count,[3],98%
same,cell count,[4],92.4%
same,cell count,[5],95.8%
same,cell count,[6],96.4%
same,cell count,[7],94.6%
same,cell count,[8],35.1%
same,cell count,[9],85.4%
"O=C(O)c1ccc2c(c1)nc(Nc1cccc(Cl)c1)c1ccncc12 + C=CCn1c(=O)c2cnc(Nc3ccc(N4CCN(C)CC4)cc3)nc2n1-c1cccc(C(C)(C)O)n1 [MK1775] (first compound 0.4 µM, partner dose 0.02 µM)",cell count,[1],93.4%
same,cell count,[2],83.6%
same,cell count,[3],87.3%
same,cell count,[4],89%
same,cell count,[5],92.5%
same,cell count,[6],101%
same,cell count,[8],49.2%
same,cell count,[9],93.3%
"O=C(O)[C@@H]1[O][Sb](=[O])([O][Sb]2(=[O])[O][C@H]([C@H](O)CO)[C@H](O)[C@H](C(=O)O)[O]2)[O][C@H]([C@H](O)CO)[C@@H]1O (some centres not stated) [stibogluconate] + COc1cc(N2CCC(N3CCN(C)CC3)CC2)ccc1Nc1ncc(Cl)c(Nc2ccccc2S(=O)(=O)C(C)C)n1 [NVP-TAE684] (first compound 2 µM, partner dose 0.08 µM)",cell count,[1],88.2%
same,cell count,[2],120%
same,cell count,[3],124%
same,cell count,[4],93.9%
same,cell count,[5],89.5%
same,cell count,[6],97.4%
same,cell count,[7],119%
same,cell count,[8],106%
same,cell count,[9],102%
"O=C(O)c1ccc2c(c1)nc(Nc1cccc(Cl)c1)c1ccncc12 + Cc1cc([N+](=O)[O-])ccc1NS(=O)(=O)c1cc(Cl)ccc1Cl [FH535] (first compound 0.4 µM, partner dose 1 µM)",cell count,[1],92%
same,cell count,[2],105%
same,cell count,[3],120%
same,cell count,[4],96%
same,cell count,[5],94.4%
same,cell count,[6],92.7%
same,cell count,[8],67%
same,cell count,[9],95.6%
"O=C(O)[C@@H]1[O][Sb](=[O])([O][Sb]2(=[O])[O][C@H]([C@H](O)CO)[C@H](O)[C@H](C(=O)O)[O]2)[O][C@H]([C@H](O)CO)[C@@H]1O (some centres not stated) [stibogluconate] + N#Cc1c(O)c2c(-c3ccc(-c4ccccc4O)cc3)csc2[nH]c1=O [A769662] (first compound 2 µM, partner dose 2 µM)",cell count,[1],106%
same,cell count,[2],134%
same,cell count,[3],157%
same,cell count,[4],102%
same,cell count,[5],100%
same,cell count,[6],99.9%
same,cell count,[8],93.9%
same,cell count,[9],110%
"O=C(O)c1ccc2c(c1)nc(Nc1cccc(Cl)c1)c1ccncc12 + Oc1cc(-c2nc(-c3ccccc3)[nH]c2-c2ccncc2)ccc1Cl [L779450] (first compound 0.4 µM, partner dose 0.2 µM)",cell count,[1],92.9%
same,cell count,[2],76.4%
same,cell count,[3],123%
same,cell count,[4],101%
same,cell count,[5],82.1%
same,cell count,[6],96.4%
same,cell count,[7],113%
same,cell count,[8],83.1%
same,cell count,[9],83.7%
"O=C(Nc1cc(C(F)(F)F)cc(C(F)(F)F)c1)c1cc(Cl)ccc1O + CCCCCCCCCCCC1=C(O)C(=O)C=C(O)C1=O [Embelin] (first compound 0.016 µM, partner dose 1.2 µM)",cell count,[1],95%
same,cell count,[2],75.7%
same,cell count,[3],110%
same,cell count,[4],94.7%
same,cell count,[5],99.2%
same,cell count,[6],103%
same,cell count,[8],106%
same,cell count,[9],95.3%
